Source: PubChem BioAssay AID1346428 (National Center for Advancing Translational Sciences (NCATS), 2018)
Hit rate of the full screen: of about 48,000 compounds, about 1,200 (2.5%) were called active. Not shown: some 2% with an inconclusive outcome.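 Rule for the calls: active = activation of at least 60% and not above a set upper limit (about 1 call in 100 departs from these limits); inconclusive = activation of 40% to 60%, or above that upper limit; inactive = activation under 40%.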 The list shows a part of the results.

molecular target: Probable G-protein coupled receptor 32 (Homo sapiens) (UniProt O75388); assay: qHTS for Agonists of Human Resolvin D1 Receptor DRV1; details: CHO-K1 GPR32 beta-arrestin PathHunter luminescence, 90 min; at 76.9 µM; hits give high values; zero percent set by DMSO-only wells; note: 0% is about no effect
UniProt O75388, sequence (O75388 whole entry, looked up): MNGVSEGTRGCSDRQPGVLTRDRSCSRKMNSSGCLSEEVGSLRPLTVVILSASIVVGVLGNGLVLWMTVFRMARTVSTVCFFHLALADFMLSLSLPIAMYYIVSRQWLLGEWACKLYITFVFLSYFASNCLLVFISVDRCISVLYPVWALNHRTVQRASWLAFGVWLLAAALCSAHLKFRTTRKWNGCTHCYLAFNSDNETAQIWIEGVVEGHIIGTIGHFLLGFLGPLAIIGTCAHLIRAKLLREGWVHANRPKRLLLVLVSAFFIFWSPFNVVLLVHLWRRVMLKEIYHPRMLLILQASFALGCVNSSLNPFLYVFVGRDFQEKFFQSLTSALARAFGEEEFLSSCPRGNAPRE
Procedure, shortened: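 Luminescent readout of beta-Gal complementation quantifies ligand-induced beta-arrestin association with GPR32 in CHO-K1 cells; 90 min compound incubation at 37 °C, detection 1 h at room temperature.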

activation, active:
Cc1cccc(C(=O)Nc2ccc3oc(-c4ccncc4)nc3c2)c1 72%

activation, inactive:
CCOc1ccc(NC(=O)N(C(C)C)C2CCN(C(C)=O)CC2)cc1 -13.1%
COc1ccc(C2C=C(c3ccccc3)Nc3nc(NC(=O)/C=C/c4ccc(F)cc4)nn32)cc1 (stereo not drawn) -16.5%
COc1ccc2c(c1)c1c(c(=O)n(-c3ccccc3C)c(=O)n1CC(=O)N1CCCC1)n2C -7.38%
COc1cccc(CN2C(=O)CN(C3CCCCC3)C(=O)C2c2ccc(OC)c(OC)c2)c1 (stereo not drawn) -2.42%
CCOc1ccc(CNC(=O)C2CCN(S(=O)(=O)c3cn(C)cn3)CC2)cc1OC -11.6%
COc1ccc(-c2cc(C(F)(F)F)c(C#N)c(SCC(=O)Nc3ccccc3F)n2)cc1 -9.52%
CCC(C)Sc1c(C(C)C)cnc2c1c(=O)n(C)c(=O)n2C (stereo not drawn) -24.8%
Cc1nn(C)c2c1c(-c1ccccc1)cc(=O)n2Cc1ccc(Cl)cc1 -10.6%
COc1cccc(CNc2nccn(-c3ccc(OC)c(OC)c3)c2=O)c1 -0.901%
COc1ccc(-n2c(/C=C/c3c(C)[nH]c4ccccc34)nc3ccccc3c2=O)cc1 -5.03%
COc1ccc(CNC(=O)c2cnn(-c3ccc(C)cc3)c2-n2cccc2)cc1OC -1.76%
CCOc1ccc(S(=O)(=O)N2CCC(N3CCN(Cc4ccc(C)cc4)C(=O)C3=O)CC2)cc1 -14%
COc1ccccc1C(=O)Nc1ccc(OCc2cc(=O)n3ccc(C)cc3n2)cc1 -6.36%
COCc1cc(C)nc2sc3c(c12)NC(c1ccc(O)cc1)N(c1ccc(C)cc1)C3=O (stereo not drawn) -27.6%
O=C(Cn1c2ncccc2c(=O)n1-c1ccccc1)Nc1ccc(Cl)cc1C(F)(F)F 2.91%
COc1ccc(C)cc1-n1c(-c2ccc(C)cc2)cc2c1CC(C)(C)CC2=O -26.8%
CCn1c(=N)c(C(=O)NC2CCCC2)cc2c(=O)n3ccccc3nc21 10.6%
Cc1nn(C(=O)c2ccccc2)c(C)c1S(=O)(=O)N1CCCCCC1 -1.08%
CCN(C(=O)c1cn(-c2ccc(OC)cc2)c(=O)c2ccccc12)c1cccc(Cl)c1 -24.4%
O=C(OCc1cccc(C(F)(F)F)c1)c1ccc(-c2nnn(Cc3ccc(F)cc3)n2)cc1 1.65%
CCOc1ccc(C(=O)OCc2cc(=O)n3cc(C)sc3n2)cc1 -4.01%
COc1ccc(-c2nc3scc(CCNC(=O)c4cc(OC)cc(OC)c4)n3n2)cc1 16.4%
CC(C)N1CCc2nc(SCC(=O)Nc3cccc(F)c3)[nH]c(=O)c2C1 -9.91%
CCOC(=O)C1CCCN(S(=O)(=O)c2ccc3[nH]c(=O)oc3c2)C1 (stereo not drawn) -5.31%
COc1ccccc1NC(=O)c1sc2ncn(Cc3ccccc3Cl)c(=O)c2c1C -7.92%
CCc1ccccc1NC(=O)c1sc(-n2nc(C)c(Cc3ccc4c(c3)OCO4)c2C)nc1C -7.3%
CCCCCn1cc2c(c1-c1ccc(Cl)cc1)c(=O)n(C)c(=O)n2C -17.1%
COc1ccc2c(c1)C=C(C(=O)NCc1cc(Br)ccc1OC)CO2 -26.8%
COC(=O)c1ccccc1NC(=O)Cn1c(=O)n(CCCC(=O)NCCc2ccc(OC)c(OC)c2)c(=O)c2ccccc21 8.45%
Cc1cc(C)c(NC(=O)CCC(=O)N2Cc3ccccc3Oc3ncccc32)c(C)c1 1.35%
COc1ccc(Nc2cc(C)c3cc(NC(=O)c4cc(OC)cc(OC)c4)ccc3n2)cc1 -8.87%
Cc1ccc(C)c(NC(=O)NCc2ccc3c(c2)CCN3C(=O)c2ccccc2)c1 11%
C[N+](C)(C)CC=O -3.34%
COc1ccc(S(=O)(=O)NCc2ccc(C(=O)NCc3ccccc3)cc2)cc1 12.8%
CCCOc1ccc(C2c3c(oc4ccccc4c3=O)C(=O)N2c2nc(C)c(C(=O)OCC)s2)cc1 (stereo not drawn) -11.5%
CC(=O)c1ccc(N2CCN(C(=O)c3ccc(Cn4c(=O)[nH]c5ccccc5c4=O)cc3)CC2)cc1 -6.51%
CCN1CCC(N(Cc2ccc(F)cc2)C(=O)Nc2cc(Cl)ccc2C(=O)OC)CC1 31.9%
Cc1ccc2c(c1)-c1c(cnn1CC(=O)N1CCN(c3cc(Cl)ccc3C)CC1)CO2 -12.2%
O=C(c1ccccc1)c1ccc2nc(Nc3cc(Cl)ccc3O)c3nncn3c2c1 -14.3%
CC(C)C(NS(=O)(=O)c1cccc2cccnc12)C(=O)Nc1ccc(OC(F)(F)F)cc1 (stereo not drawn) -21.9%
OC[C@H]1O[C@@H](n2cnc3c(NC4CCCC4)ncnc32)[C@H](O)[C@@H]1O 7.85%
CCOc1ccc(-c2cn3c(n2)sc2cc(C(=O)NC4CCCc5ccccc54)ccc23)cc1 (stereo not drawn) -0.868%
Cc1ccc(NC(=O)CC(C)S(=O)(=O)c2ccc3c(c2)NC(=O)CO3)cc1C (stereo not drawn) 29.1%
O=S(=O)(c1ccc2nc(N3CCN(c4ccccc4)CC3)ccc2c1)N1CCCCC1 -12.9%
COc1ccc(-c2noc(-c3cccc(OC)c3OC)n2)cc1 -5.32%
COc1ccc2c(CNCCc3ccccc3)c(C(=O)O)n(Cc3cccc(F)c3)c2c1 -20%
Cc1cccc(NC(=O)CSc2nc3c(oc4ccccc43)c(=O)n2-c2ccc(F)cc2)c1 7.23%
COc1ccc(Nc2cc(C(=O)NCc3ccccc3)c3ccccc3n2)c(OC)c1 -31.3%
COc1ccc(N(Cc2cccs2)C(=O)COc2cc(C)c(Cl)c(C)c2)cc1 -12.5%
CCOc1ccc2nc(NC(=O)c3cc(=O)c4cc(C)cc(C)c4o3)sc2c1 16.3%
COc1ccc(NC(=O)c2cn3c4c(ccc(Cl)c4c2=O)OC(C)C3)cc1OC (stereo not drawn) 21.4%
CSc1ncc(C(=O)Nc2ccc(C(C)=O)cc2)c(-c2ccccc2)n1 -2.7%
